# According to the supplement of paper PMC8728848:
# Some of the results follow.
# B1: Gal 4 (Canis lupus) (protein)
# chain: MAYVPAPGYQPTYNPTLPYNKPIPGGLSVGMSVYIQGITSEHMRRFCVNFVAGAHPGSDIAFHFNPRFDGWDKVVFNSHLGGKWGSEEKKRSMPFRKGTHFELVFMVLAEHYKVVVNGNPFYEFGHRLPLQLVTHLQVEGDVELQSINFIGGTQPLGQGPGHTQQQPSSLPTMEGPPVFNPPVPFRKRLQGGLTVRRTVIIKGFVPFTSKSFVINFMVESSGDLALHINPRLTEGLVVRNSCLNGSWGSEDRKLSYNPFIPGQFFDLSIRCGMDRFKVYANGQHLFDFSHRLLALQNVDMLEINGDVTLSYIQV
# Columns and labels:
# Assay in all cases: glycan array binding signal (z-score within array); higher = stronger binding
# Details in all cases: glycan notation: IUPAC condensed, linker removed
# [1] = biological target: Neu5Ac(a2-3)Gal(b1-4)[Fuc(a1-3)]GlcNAc(b1-3)Gal(b1-4)GlcNAc
# Summary of the method: (§1)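 From the Consortium for Functional Glycomics database, 3228 arrays were curated, keeping only those whose protein sequence was available. Binding is given as a within-array Z-score averaged across arrays sharing a protein sequence and across linkers. Negative Z-scores can be read as non-binding.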
# [2] = biological target: Neu5Ac(a2-3)Gal(b1-4)[Fuc(a1-3)]GlcNAc(b1-3)Gal(b1-4)[Fuc(a1-3)]GlcNAc(b1-3)Gal(b1-4)[Fuc(a1-3)]GlcNAc
# Summary of the method: as §1
# [3] = biological target: Neu5Ac(a2-3)Gal(b1-4)[Fuc(a1-3)]GlcNAc(b1-3)GalNAc
# Summary of the method: as §1
# [4] = biological target: Neu5Ac(a2-3)Gal(b1-4)[Fuc(a1-3)]GlcNAc(b1-6)[Gal(b1-3)]GalNAc
# Summary of the method: as §1
# [5] = biological target: Neu5Ac(a2-3)Gal(b1-4)[Fuc(a1-3)]GlcNAc(b1-6)[Neu5Ac(a2-3)Gal(b1-3)]GalNAc
# Summary of the method: as §1
# [6] = biological target: Neu5Ac(a2-3)Gal(b1-4)[Fuc(a1-3)]GlcNAc6S
# Summary of the method: as §1
# [7] = biological target: Neu5Ac(a2-3)Gal6S(b1-4)GlcNAc
# Summary of the method: as §1
# [8] = biological target: Neu5Ac(a2-3)Gal6S(b1-4)[Fuc(a1-3)]GlcNAc
# Summary of the method: as §1
# Neu5Ac(a2-3)GalNAc = biological target: Neu5Ac(a2-3)GalNAc
# Summary of the method: as §1
# [9] = biological target: Neu5Ac(a2-3)GalNAc(b1-4)GlcNAc
# Summary of the method: as §1
# [10] = biological target: Neu5Ac(a2-3)[GalNAc(b1-4)]Gal(b1-4)Glc
# Summary of the method: as §1
# [11] = biological target: Neu5Ac(a2-3)[GalNAc(b1-4)]Gal(b1-4)GlcNAc
# Summary of the method: as §1
# [12] = biological target: Neu5Ac(a2-3)[GalNAc(b1-4)]Gal(b1-4)GlcNAc(b1-3)GalNAc
# Summary of the method: as §1
# [13] = biological target: Neu5Ac(a2-3)[Neu5Ac(a2-6)]GalNAc
# Summary of the method: as §1
# Neu5Ac(a2-6)Gal = biological target: Neu5Ac(a2-6)Gal
# Summary of the method: as §1
# [14] = biological target: Neu5Ac(a2-6)Gal(b1-3)GlcNAc(b1-3)[Gal(b1-4)GlcNAc(b1-6)]Gal(b1-4)Glc
# Summary of the method: as §1
# Neu5Ac(a2-6)Gal(b1-4)Glc = biological target: Neu5Ac(a2-6)Gal(b1-4)Glc
# Summary of the method: as §1
# [15] = biological target: Neu5Ac(a2-6)Gal(b1-4)GlcNAc
# Summary of the method: as §1
# [16] = biological target: Neu5Ac(a2-6)Gal(b1-4)GlcNAc(b1-2)Man(a1-3)Man(b1-4)GlcNAc(b1-4)GlcNAc
# Summary of the method: as §1
# [17] = biological target: Neu5Ac(a2-6)Gal(b1-4)GlcNAc(b1-2)Man(a1-3)[Gal(b1-4)GlcNAc(b1-2)Man(a1-6)]Man(b1-4)GlcNAc(b1-4)GlcNAc
# Summary of the method: as §1
# [18] = biological target: Neu5Ac(a2-6)Gal(b1-4)GlcNAc(b1-2)Man(a1-3)[GlcNAc(b1-2)Man(a1-6)]Man(b1-4)GlcNAc(b1-4)GlcNAc
# Summary of the method: as §1
# [19] = biological target: Neu5Ac(a2-6)Gal(b1-4)GlcNAc(b1-2)Man(a1-3)[GlcNAc(b1-2)Man(b1-4)GlcNAc(b1-2)Man(a1-6)]Man(b1-4)GlcNAc(b1-4)GlcNAc
# Summary of the method: as §1
# [20] = biological target: Neu5Ac(a2-6)Gal(b1-4)GlcNAc(b1-2)Man(a1-3)[Man(a1-6)]Man(b1-4)GlcNAc(b1-4)GlcNAc
# Summary of the method: as §1
# [21] = biological target: Neu5Ac(a2-6)Gal(b1-4)GlcNAc(b1-2)Man(a1-3)[Neu5Ac(a2-6)Gal(b1-4)GlcNAc(b1-2)Man(a1-6)]Man(b1-4)GlcNAc(b1-4)GlcNAc
# Summary of the method: as §1
# [22] = biological target: Neu5Ac(a2-6)Gal(b1-4)GlcNAc(b1-2)Man(a1-6)Man(b1-4)GlcNAc(b1-4)GlcNAc
# Summary of the method: as §1
# [23] = biological target: Neu5Ac(a2-6)Gal(b1-4)GlcNAc(b1-2)Man(a1-6)[Gal(b1-4)GlcNAc(b1-2)Man(a1-3)]Man(b1-4)GlcNAc(b1-4)GlcNAc
# Summary of the method: as §1
# [24] = biological target: Neu5Ac(a2-6)Gal(b1-4)GlcNAc(b1-2)Man(a1-6)[GlcNAc(b1-2)Man(a1-3)]Man(b1-4)GlcNAc(b1-4)GlcNAc
# Summary of the method: as §1
# [25] = biological target: Neu5Ac(a2-6)Gal(b1-4)GlcNAc(b1-2)Man(a1-6)[Man(a1-3)]Man(b1-4)GlcNAc(b1-4)GlcNAc
# Summary of the method: as §1
# [26] = biological target: Neu5Ac(a2-6)Gal(b1-4)GlcNAc(b1-3)Gal(b1-3)GlcNAc
# Summary of the method: as §1
# [27] = biological target: Neu5Ac(a2-6)Gal(b1-4)GlcNAc(b1-3)Gal(b1-4)GlcNAc
# Summary of the method: as §1
# [28] = biological target: Neu5Ac(a2-6)Gal(b1-4)GlcNAc(b1-3)Gal(b1-4)GlcNAc(b1-3)Gal(b1-4)GlcNAc
# Summary of the method: as §1
# [29] = biological target: Neu5Ac(a2-6)Gal(b1-4)GlcNAc(b1-3)Gal(b1-4)[Fuc(a1-3)]GlcNAc(b1-3)Gal(b1-4)[Fuc(a1-3)]GlcNAc
# Summary of the method: as §1
# [30] = biological target: Neu5Ac(a2-6)Gal(b1-4)GlcNAc(b1-3)GalNAc
# Summary of the method: as §1
# [31] = biological target: Neu5Ac(a2-6)Gal(b1-4)GlcNAc6S
# Summary of the method: as §1
# Neu5Ac(a2-6)GalNAc = biological target: Neu5Ac(a2-6)GalNAc
# Summary of the method: as §1
# [32] = biological target: Neu5Ac(a2-6)GalNAc(b1-4)GlcNAc
# Summary of the method: as §1
# [33] = biological target: Neu5Ac(a2-6)GlcNAc(b1-4)GlcNAc
# Summary of the method: as §1
# [34] = biological target: Neu5Ac(a2-6)GlcNAc(b1-4)GlcNAc(b1-4)GlcNAc
# Summary of the method: as §1
# Neu5Ac(a2-8)Neu5Ac = biological target: Neu5Ac(a2-8)Neu5Ac
# Summary of the method: as §1
# [35] = biological target: Neu5Ac(a2-8)Neu5Ac(a2-3)Gal(b1-4)Glc
# Summary of the method: as §1
# [36] = biological target: Neu5Ac(a2-8)Neu5Ac(a2-3)[Gal(b1-3)GalNAc(b1-4)]Gal(b1-4)Glc
# Summary of the method: as §1
# [37] = biological target: Neu5Ac(a2-8)Neu5Ac(a2-3)[GalNAc(b1-4)]Gal(b1-4)Glc
# Summary of the method: as §1
# [38] = biological target: Neu5Ac(a2-8)Neu5Ac(a2-8)Neu5Ac
# Summary of the method: as §1
# [39] = biological target: Neu5Ac(a2-8)Neu5Ac(a2-8)Neu5Ac(a2-3)Gal(b1-4)Glc
# Summary of the method: as §1
# [40] = biological target: Neu5Ac(a2-8)Neu5Ac(a2-8)Neu5Ac(a2-3)[GalNAc(b1-4)]Gal(b1-4)Glc
# Summary of the method: as §1
# [41] = biological target: Neu5Ac(a2-8)Neu5Ac(a2-8)Neu5Ac(a2-8)Neu5Ac(a2-3)[GalNAc(b1-4)]Gal(b1-4)Glc
# Summary of the method: as §1
# [42] = biological target: Neu5Ac(b2-6)Gal(b1-4)GlcNAc
# Summary of the method: as §1
# Neu5Ac(b2-6)GalNAc = biological target: Neu5Ac(b2-6)GalNAc
# Summary of the method: as §1
# [43] = biological target: Neu5Ac9Ac(a2-3)Gal(b1-3)GlcNAc
# Summary of the method: as §1
# [44] = biological target: Neu5Ac9Ac(a2-3)Gal(b1-4)GlcNAc
# Summary of the method: as §1
# [45] = biological target: Neu5Ac9Ac(a2-6)Gal(b1-4)GlcNAc
# Summary of the method: as §1
# [46] = biological target: Neu5Gc(a2-3)Gal(b1-3)GlcNAc
# Summary of the method: as §1
# [47] = biological target: Neu5Gc(a2-3)Gal(b1-3)[Fuc(a1-4)]GlcNAc
# Summary of the method: as §1
# Neu5Gc(a2-3)Gal(b1-4)Glc = biological target: Neu5Gc(a2-3)Gal(b1-4)Glc
# Summary of the method: as §1
# [48] = biological target: Neu5Gc(a2-3)Gal(b1-4)GlcNAc
# Summary of the method: as §1
# [49] = biological target: Neu5Gc(a2-3)Gal(b1-4)[Fuc(a1-3)]GlcNAc
# Summary of the method: as §1
# [50] = biological target: Neu5Gc(a2-6)Gal(b1-4)GlcNAc
# Summary of the method: as §1
# Neu5Gc(a2-6)GalNAc = biological target: Neu5Gc(a2-6)GalNAc
# Summary of the method: as §1
# [51] = biological target: Neu5Gc(b2-6)Gal(b1-4)GlcNAc
# Summary of the method: as §1
binder,measurement,setting,value
B1,glycan array binding signal (z-score),[1],-0.132
same,glycan array binding signal (z-score),[2],-0.098
same,glycan array binding signal (z-score),[3],-0.067
same,glycan array binding signal (z-score),[4],-0.043
same,glycan array binding signal (z-score),[5],-0.12
same,glycan array binding signal (z-score),[6],-0.146
same,glycan array binding signal (z-score),[7],-0.16
same,glycan array binding signal (z-score),[8],-0.158
same,glycan array binding signal (z-score),Neu5Ac(a2-3)GalNAc,-0.152
same,glycan array binding signal (z-score),[9],-0.15
same,glycan array binding signal (z-score),[10],-0.152
same,glycan array binding signal (z-score),[11],-0.14
same,glycan array binding signal (z-score),[12],-0.121
same,glycan array binding signal (z-score),[13],-0.153
same,glycan array binding signal (z-score),Neu5Ac(a2-6)Gal,-0.152
same,glycan array binding signal (z-score),[14],-0.151
same,glycan array binding signal (z-score),Neu5Ac(a2-6)Gal(b1-4)Glc,-0.153
same,glycan array binding signal (z-score),[15],-0.154
same,glycan array binding signal (z-score),[16],-0.151
same,glycan array binding signal (z-score),[17],-0.114
same,glycan array binding signal (z-score),[18],-0.15
same,glycan array binding signal (z-score),[19],-0.155
same,glycan array binding signal (z-score),[20],-0.156
same,glycan array binding signal (z-score),[21],-0.14
same,glycan array binding signal (z-score),[22],-0.158
same,glycan array binding signal (z-score),[23],-0.145
same,glycan array binding signal (z-score),[24],-0.155
same,glycan array binding signal (z-score),[25],-0.151
same,glycan array binding signal (z-score),[26],-0.152
same,glycan array binding signal (z-score),[27],-0.151
same,glycan array binding signal (z-score),[28],-0.142
same,glycan array binding signal (z-score),[29],-0.152
same,glycan array binding signal (z-score),[30],-0.152
same,glycan array binding signal (z-score),[31],-0.154
same,glycan array binding signal (z-score),Neu5Ac(a2-6)GalNAc,-0.148
same,glycan array binding signal (z-score),[32],-0.147
same,glycan array binding signal (z-score),[33],-0.156
same,glycan array binding signal (z-score),[34],-0.147
same,glycan array binding signal (z-score),Neu5Ac(a2-8)Neu5Ac,-0.152
same,glycan array binding signal (z-score),[35],-0.151
same,glycan array binding signal (z-score),[36],-0.144
same,glycan array binding signal (z-score),[37],-0.133
same,glycan array binding signal (z-score),[38],-0.155
same,glycan array binding signal (z-score),[39],-0.149
same,glycan array binding signal (z-score),[40],-0.134
same,glycan array binding signal (z-score),[41],-0.146
same,glycan array binding signal (z-score),[42],-0.153
same,glycan array binding signal (z-score),Neu5Ac(b2-6)GalNAc,-0.146
same,glycan array binding signal (z-score),[43],-0.151
same,glycan array binding signal (z-score),[44],-0.153
same,glycan array binding signal (z-score),[45],-0.15
same,glycan array binding signal (z-score),[46],-0.146
same,glycan array binding signal (z-score),[47],-0.156
same,glycan array binding signal (z-score),Neu5Gc(a2-3)Gal(b1-4)Glc,-0.156
same,glycan array binding signal (z-score),[48],-0.152
same,glycan array binding signal (z-score),[49],-0.149
same,glycan array binding signal (z-score),[50],-0.154
same,glycan array binding signal (z-score),Neu5Gc(a2-6)GalNAc,-0.149
same,glycan array binding signal (z-score),[51],-0.158
